Measured values taken from the supplement of paper PMC10338343.
± gives the standard deviation. Whole data set: some 6,600 sequences, median “pre-steady-state target cleavage rate” near 0.07, cut for the highest 2% near 0.72. Only a part is listed here, and it is no random draw.

Tested on: MIWI (PIWIL1) piRISC loaded with Kctd7 piRNA (30 nt)
Test: pre-steady-state target cleavage rate (min^-1); MIWI and MILI are mouse PIWI proteins and EfPiwi is from a freshwater sponge; tags in brackets are library labels; higher = faster piRNA-guided slicing of the target
Settings: guide: Kctd7 piRNA 5'p-UGUUAAUCUCUCAGAGAAGGUGACAGUGAU; auxiliary factor: 500 nM mouse GTSF1
Outline: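 A transcribed, DNA-blocked target RNA library […] was incubated at 33 °C for 0–8 or 0–960 min with 1 nM active affinity-purified piRISC carrying one synthetic guide, in HEPES–potassium acetate buffer with or without 500 nM GTSF1 partner protein. Uncleaved targets were then sequenced and normalised to depth and to weakly complementary targets. Data from three trials were pooled, with k3 capped at 0.0001 min^-1, and a burst-and-steady-state fit yielded the pre-steady-state cleavage rate.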
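Also: 1 nM active piRISC with 0.1 nM target library at 33 °C single turnover.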

Sequence | pre-steady-state target cleavage rate
UUCACUGUCACCUACUCUGAGAGAUAAACA | 0.29 ± 0.036
UAGUGAGUCACCUUCUCAGAGAGAUAUUGA | 0.00553 ± 0.0047
UAGUGACAGACCUUCACUGAGAGAUUAAGA | 0.00961 ± 0.0042
UAGUGACAGUGCUUCUCUGAGAGAUUAAUCA | 0.00423 ± 0.0026
UAGUGACACACCUUCUCUGAGAGAUAAAGA | 0.0117 ± 0.0046
UAGUGUGUCACCUCUCUCUGAGAGAUUAACA | 0.248 ± 0.026
UAGUCUGUCACCUUCUCUGAGAGAUUAUCA | 0.237 ± 0.031
UAGUGACAGUCCUUCUCUCAGAGAUUAACA | 0.00363 ± 0.0026
UACACUGAGUCCUUCUCUGAGAGAUUAACA | 0.379 ± 0.027
UAGUGACUCACCUUCUCAGAGAGAUUAUGA | 0.00803 ± 0.0039
UAGUGUGUCACCUUAUCUGAGAGAUUAACA | 0.423 ± 0.023
UUCACUGUGACCAUCUCUGAGAGAUUAACA | 0.493 ± 0.026
UAGUGAGUCACCUUCUCUGACAGAUUAUGA | 0.0112 ± 0.0041
UAGUGACACACGUUCUCUGAGUGAUUAACA | 0.00829 ± 0.0019
UAGUGAGUCUCCUUCUCUGUGAGAUUAACA | 0.0792 ± 0.011
UAGUGACUCGACCUUCUCUGAGAGAUUAACA | 0.108 ± 0.013
UACAGUGUCAGCUUCUCUGAGAGAUUAACA | 0.622 ± 0.028
UACACUGUCACCUUCUCUGGAGAUUAACA | 0.188 ± 0.016
UACACUGCUCACCUUCUCUGAGAGAUUAACA | 0.623 ± 0.035
UACACUGUGACCUUCUCUGAGAGAUUUUGA | 0.055 ± 0.013
UACACUGUCACCUUCUCUGAGAGAUUCACA | 0.509 ± 0.12
UAGUGAGUCACCUUGACUGAGAGAUUAACA | 0.0328 ± 0.006
UAGUCUGUCUACCUUCUCUGAGAGAUUAACA | 0.166 ± 0.019
AUCACUGUCACCUUGACUGAGAGAUUAUGA | 0.151 ± 0.049

Sequence | pre-steady-state target cleavage rate
UAGUGAGUCACCUUCUCUGAGUGAUAAACA | 0.0237 ± 0.0075
UUCACUGUCACGUUCUCUGAGAGAUUAUGA | 0.0625 ± 0.016
UUCACUGUGUGCUUCUCUGAGAGAUUAAGA | 0.00941 ± 0.0027
AACACUGUCACCUUCUCUCAGAGAUUAACA | 0.15 ± 0.016
UAGUGACACACCUUCUCUGAGAGAUAACA | 0.0111 ± 0.0033
AUCACUGUCUCCUUCACUGAGAGAUUAACA | 0.426 ± 0.029
UACACUGUCACCUUCUCUGAGAGAUUAAGA | 0.192 ± 0.032
UAGACUGUCACCAACUCUGAGAGAUUAAGA | 0.0368 ± 0.01
UAGUGACAGACCUUCUCUGAGAGUUAAACA | 0.017 ± 0.0049
UACACUGUCACCUUCUCUGAGAGCUUAACA | 0.21 ± 0.024
AUCACUGUCACCUUCUCUGAGAGAUUACACA | 0.36 ± 0.051
AUCACUGUCACCUUCUCUGAUGAGAUUAACA | 0.0224 ± 0.0086
UUCACUGUCAGCUUCUCUCAGAGAUUAACA | 0.0874 ± 0.0057
UAGUCUGUCACCUUCUCUGAGAGAUUAUGA | 0.0495 ± 0.011
UAGUGUGUCACCUUCUCGAGAGAUUAACA | 0.07 ± 0.011
UAGUGAGUCAGCUUCUCUGUGAGAUUAACA | 0.258 ± 0.013
UUCACUGUCACCUUCUGUGAGAGAUAAACA | 0.165 ± 0.021
UUGACUGUCACCUUCUCUGAGUGAUUAACA | 0.0277 ± 0.0037
UAGUGACUCACCUUCUCUUAGAGAUUAACA | 0.161 ± 0.014
UUCACUGUGACCUUCACUGAGAGAUUAACA | 0.386 ± 0.031
UAGUCUGUCUCCUUCUCUCAGAGAUUAACA | 0.0845 ± 0.0069
AUCACUGUCACCUUGUCUGAGACAUUAACA | 0.202 ± 0.027
UACACUGUCACCUUCUCUGAGAGAGUUAACA | 0.462 ± 0.075
UAGUGACAGUGGUUCUCUGAGAGCAUUAACA | < 0.0001

Sequence | pre-steady-state target cleavage rate
UAGUGACUCAGCUUCUCUGAGAGAAUAACA | 0.0124 ± 0.0027
UAGUGUGUCACCUUCUCUGAGAGAAUUAACA | 0.35 ± 0.057
UAGUGAGUCACCUUCUCUGACUCAUUAACA | 0.00443 ± 0.0039
UAGUGACUCAUCCUUCUCUGAGAGAUUAACA | 0.123 ± 0.011
AUCACUGUCACCUUCUCUGAGUCAUUAUGA | 0.00326 ± 0.0025
UAGUGACAGUCCUUCUCUGAGAGACUAACA | 0.00948 ± 0.0027
UAGUGAGUCACCAUCUCUGAGAGAUUAUGA | 0.0408 ± 0.014
UAGUGACUCACGUUCUGUGAGAGAUUAACA | 0.191 ± 0.027
UAGUGACACACCUACUCUCAGAGAUUAACA | 0.00712 ± 0.0036
UAGUGACACACCUUCCCUGAGAGAUUAACA | 0.256 ± 0.056
AUCACUGAGACCUUCUCUGAGAGAUUAAGA | 0.17 ± 0.033
UAGUGUGUCUCCUUCUCUGUGAGAUUAACA | 0.0767 ± 0.0088
UAGUGAGUCACCUUCUCUGAGAGAAUUAACA | 0.308 ± 0.044
UAGUCUGUCACCUUCCCUGAGAGAUUAACA | 0.298 ± 0.038
UACACUGUCAUCCUUCUCUGAGAGAUUAACA | 0.271 ± 0.026
UUCACUGUCUCCUACUCUGAGAGAUUAACA | 0.614 ± 0.036
UAGUGACUCUCCUUCUCUGACAGAUUAACA | 0.03 ± 0.0045
UAGUGACAGUGGAAGUCUGACAGUUUAACA | < 0.0001
UAGUCUGUCACCUUGAGUGAGAGAUUAACA | 0.00414 ± 0.0035
UUCACUGUCACCUUGUCUGAGAGAUUAUCA | 0.467 ± 0.079
AUCACUGUGACCUUCACUGAGAGAUUAACA | 0.277 ± 0.016
UAGUGAGUCACCUUCUCAGAGAGAAUAACA | 0.0547 ± 0.011
UAGACUGUCACCUUCUCUGACUCUAAUUGA [g11:g27:cont:t1A] | < 0.0001
UACACUGACACCUUCUCUGAGAGAAUAACA | 0.338 ± 0.089
